Some of the results follow.
B1: PhoQ; a variant is named by its letters at X, in order, P23837 (parent)
chain: MKKLLRLFFPLSLRVRFLLATAAVVLVLSLAYGMVALIGYSVSFDKTTFRLLRGESNLFYTLAKWENNKLHVELPENIDKQSPTMTLIYDENGQLLWAQRDVPWLMKMIQPDWLKSNGFHEIEADVNDTSLLLSGDHSIQQQLQEVREDDDDAEMTHSVAVNVYPATSRMPKLTIVVVDTIPVELKSSYMVWSWFIYVLSANLLLVIPLLWVAAWWSLRPIEALAKEVRELEEHNRELLNPATTRELTSLVRNLNRLLKSERERYDKYRTTLTDLTHSLKTPLXXLQXXLRSLRSEKMSVSDAEPVMLEQISRISQQIGYYLHRASMRGGTLLSRELHPVAPLLDNLTSALNKVYQRKGVNISLDISPEISFVGEQNDFVEVMGNVLDNACKYCLEFVEISARQTDEHLYIVVEDDGPGIPLSKREVIFDRGQRVDTLRPGQGVGLAVAREITEQYEGKIVAGESMLGGARMEVIFGRQHSAPKDE

Variants of: B1
Experiment: enrichment ratio after two sorts for PhoP signalling (ratio (wild type AVST 3.29)); higher = more functional
Conditions: with PhoP (E. coli)
In the case of SGKN, the enrichment ratio is reported as ≤ 0.25. With DTKC the enrichment ratio was ≤ 0.25. LNRQ was tested, and the enrichment ratio was ≤ 0.25. NVGS was tested, and the enrichment ratio was ≤ 0.25. In the case of LYFF, the enrichment ratio is reported as ≤ 0.25. RNQM was tested, and the enrichment ratio was ≤ 0.25. With WFMK the enrichment ratio was ≤ 0.25. In the case of MIQR, the enrichment ratio is reported as ≤ 0.25. TLFW was tested, and the enrichment ratio was ≤ 0.25. KTQS was tested, and the enrichment ratio was ≤ 0.25. In the case of LWQF, the enrichment ratio is reported as ≤ 0.25. In the case of CMSC, the enrichment ratio is reported as 39.5. KDIN was tested, and the enrichment ratio was ≤ 0.25. In the case of GTSM, the enrichment ratio is reported as 10.6. With FSKM the enrichment ratio was ≤ 0.25. In the case of IDKC, the enrichment ratio is reported as ≤ 0.25. With VCDY the enrichment ratio was ≤ 0.25. Variant AHML has an enrichment ratio of 4.34. Work on TTLF yielded an enrichment ratio of 4.92. For KVFN, the enrichment ratio was ≤ 0.25. LYDD was tested, and the enrichment ratio was ≤ 0.25. Variant QIYI has an enrichment ratio of 5.43. In the case of KNEL, the enrichment ratio is reported as ≤ 0.25. With SAEH the enrichment ratio was ≤ 0.25. NTVV was tested, and the enrichment ratio was ≤ 0.25. In the case of PSLQ, the enrichment ratio is reported as ≤ 0.25. In the case of PEVS, the enrichment ratio is reported as ≤ 0.25. For WQSF, the enrichment ratio was ≤ 0.25. In the case of EGKL, the enrichment ratio is reported as ≤ 0.25. SELK showed an enrichment ratio of 7.11. In the case of RPIA, the enrichment ratio is reported as ≤ 0.25. For TNWV, the enrichment ratio was ≤ 0.25. GWTY was tested, and the enrichment ratio was ≤ 0.25. LVYF was tested, and the enrichment ratio was ≤ 0.25. For DLPV, the enrichment ratio was ≤ 0.25. For SMML, the enrichment ratio was 14.5. For GEPR, the enrichment ratio was ≤ 0.25. For SHND, the enrichment ratio was ≤ 0.25. Work on MTFI yielded an enrichment ratio of 1.99. For NSTC, the enrichment ratio was ≤ 0.25. With VQWC the enrichment ratio was ≤ 0.25. For YKNW, the enrichment ratio was ≤ 0.25. In the case of VHMY, the enrichment ratio is reported as ≤ 0.25. In the case of LTEF, the enrichment ratio is reported as ≤ 0.25. In the case of AFEY, the enrichment ratio is reported as ≤ 0.25. GTNQ was tested, and the enrichment ratio was ≤ 0.25. For DNDW, the enrichment ratio was ≤ 0.25. With QHVS the enrichment ratio was ≤ 0.25. For NWKR, the enrichment ratio was ≤ 0.25. NWMH was tested, and the enrichment ratio was ≤ 0.25. For IWDR, the enrichment ratio was ≤ 0.25. Variant SCSC has an enrichment ratio of 9.53. For TWLF, the enrichment ratio was ≤ 0.25. With AKQE the enrichment ratio was ≤ 0.25. RLVK was tested, and the enrichment ratio was ≤ 0.25. In the case of NEKY, the enrichment ratio is reported as ≤ 0.25. RMGL was tested, and the enrichment ratio was ≤ 0.25. In the case of PTPM, the enrichment ratio is reported as ≤ 0.25. EPFE was tested, and the enrichment ratio was ≤ 0.25. With QSWS the enrichment ratio was 2.8. For TYNY, the enrichment ratio was ≤ 0.25. Variant ATAL has an enrichment ratio of 4.51. MASN showed an enrichment ratio of 0.887. With FSPW the enrichment ratio was ≤ 0.25. MFAE was tested, and the enrichment ratio was ≤ 0.25. In the case of KMHR, the enrichment ratio is reported as ≤ 0.25. For LHNA, the enrichment ratio was ≤ 0.25. For LSVE, the enrichment ratio was ≤ 0.25. With RCVC the enrichment ratio was ≤ 0.25. For NTFY, the enrichment ratio was ≤ 0.25. With QPSV the enrichment ratio was ≤ 0.25. THLA showed an enrichment ratio of 6.39. In the case of QRQF, the enrichment ratio is reported as ≤ 0.25. With NIGT the enrichment ratio was ≤ 0.25. For RPDC, the enrichment ratio was ≤ 0.25. In the case of YDLI, the enrichment ratio is reported as ≤ 0.25. HPFP was tested, and the enrichment ratio was ≤ 0.25. SNMQ showed an enrichment ratio of 9.49. DSFT was tested, and the enrichment ratio was ≤ 0.25. For MVYY, the enrichment ratio was ≤ 0.25. In the case of TIFR, the enrichment ratio is reported as ≤ 0.25. With VLYH the enrichment ratio was ≤ 0.25. FMII was tested, and the enrichment ratio was ≤ 0.25. QGWG showed an enrichment ratio of 7.39. For KMMS, the enrichment ratio was ≤ 0.25. In the case of SWKA, the enrichment ratio is reported as ≤ 0.25. With PQGM the enrichment ratio was ≤ 0.25. With VWKL the enrichment ratio was ≤ 0.25. In the case of QRWA, the enrichment ratio is reported as ≤ 0.25. KPCI was tested, and the enrichment ratio was ≤ 0.25. LSWR was tested, and the enrichment ratio was ≤ 0.25. For YCKM, the enrichment ratio was ≤ 0.25. For SAGS, the enrichment ratio was 3.14. In the case of AWSP, the enrichment ratio is reported as 1.37. With EMYK the enrichment ratio was ≤ 0.25. With NKTT the enrichment ratio was ≤ 0.25. GGYA was tested, and the enrichment ratio was ≤ 0.25. For LDGM, the enrichment ratio was ≤ 0.25. With RFPA the enrichment ratio was ≤ 0.25. With PCTY the enrichment ratio was ≤ 0.25. MQSH was tested, and the enrichment ratio was ≤ 0.25. With RTQV the enrichment ratio was ≤ 0.25. For TQAS, the enrichment ratio was 6.39. TDRA was tested, and the enrichment ratio was ≤ 0.25. GTLN gave an enrichment ratio of 4.21. FQWS was tested, and the enrichment ratio was ≤ 0.25. MMAQ was tested, and the enrichment ratio was 5.74. VAAF was tested, and the enrichment ratio was ≤ 0.25. In the case of MILW, the enrichment ratio is reported as ≤ 0.25. IYHD was tested, and the enrichment ratio was ≤ 0.25. In the case of EMVW, the enrichment ratio is reported as ≤ 0.25. For GIAC, the enrichment ratio was 11.8. YQVC showed an enrichment ratio of 0.339. With YRIA the enrichment ratio was ≤ 0.25. For IGDV, the enrichment ratio was ≤ 0.25. For QMGQ, the enrichment ratio was ≤ 0.25. RSLM was tested, and the enrichment ratio was ≤ 0.25. With TIWA the enrichment ratio was ≤ 0.25. TCIC was tested, and the enrichment ratio was ≤ 0.25. For VDRG, the enrichment ratio was ≤ 0.25. For RQGA, the enrichment ratio was ≤ 0.25. With MNYS the enrichment ratio was ≤ 0.25. DTIF was tested, and the enrichment ratio was ≤ 0.25. LHCR was tested, and the enrichment ratio was ≤ 0.25. HFFR was tested, and the enrichment ratio was ≤ 0.25. In the case of PQGN, the enrichment ratio is reported as ≤ 0.25. KMPA was tested, and the enrichment ratio was ≤ 0.25. In the case of MNVE, the enrichment ratio is reported as ≤ 0.25. With REKI the enrichment ratio was ≤ 0.25. NGCA was tested, and the enrichment ratio was ≤ 0.25. DHYV was tested, and the enrichment ratio was ≤ 0.25. In the case of DGDL, the enrichment ratio is reported as ≤ 0.25. EMLP was tested, and the enrichment ratio was ≤ 0.25. In the case of TSTD, the enrichment ratio is reported as ≤ 0.25. For WKWS, the enrichment ratio was ≤ 0.25. For AQMA, the enrichment ratio was 0.83. MGQV was tested, and the enrichment ratio was ≤ 0.25. MKHD was tested, and the enrichment ratio was ≤ 0.25. For QDVL, the enrichment ratio was ≤ 0.25. QDHE was tested, and the enrichment ratio was ≤ 0.25. With GLYD the enrichment ratio was ≤ 0.25. HHEW was tested, and the enrichment ratio was ≤ 0.25. GVVR was tested, and the enrichment ratio was ≤ 0.25. For ANDD, the enrichment ratio was ≤ 0.25. In the case of KNWN, the enrichment ratio is reported as ≤ 0.25. KHWN was tested, and the enrichment ratio was ≤ 0.25. MCAF showed an enrichment ratio of 32.1. KSGE was tested, and the enrichment ratio was ≤ 0.25. SGVA gave an enrichment ratio of 19. With PDMV the enrichment ratio was ≤ 0.25. With AKPL the enrichment ratio was ≤ 0.25. SEEC showed an enrichment ratio of 15.4. In the case of WEPL, the enrichment ratio is reported as ≤ 0.25. EQHW was tested, and the enrichment ratio was ≤ 0.25. In the case of IAQN, the enrichment ratio is reported as ≤ 0.25. In the case of QVIN, the enrichment ratio is reported as ≤ 0.25. For ACPP, the enrichment ratio was ≤ 0.25. With RHVR the enrichment ratio was ≤ 0.25. TCKN was tested, and the enrichment ratio was ≤ 0.25. ACPC was tested, and the enrichment ratio was ≤ 0.25. For NDHL, the enrichment ratio was ≤ 0.25. For TIWH, the enrichment ratio was ≤ 0.25. For RRRW, the enrichment ratio was ≤ 0.25. With SINK the enrichment ratio was 1.25. YGTI showed an enrichment ratio of 1.34. In the case of VKIW, the enrichment ratio is reported as ≤ 0.25. VSLI was tested, and the enrichment ratio was 14. In the case of YSKE, the enrichment ratio is reported as ≤ 0.25. With LKVH the enrichment ratio was ≤ 0.25. For FEYK, the enrichment ratio was ≤ 0.25. In the case of YDVQ, the enrichment ratio is reported as ≤ 0.25. With WRRF the enrichment ratio was ≤ 0.25. YDFY was tested, and the enrichment ratio was ≤ 0.25. For NSFD, the enrichment ratio was ≤ 0.25. DMCG was tested, and the enrichment ratio was ≤ 0.25. In the case of ICGA, the enrichment ratio is reported as ≤ 0.25. With EMYP the enrichment ratio was ≤ 0.25. With EVEW the enrichment ratio was ≤ 0.25. GTTL gave an enrichment ratio of 11.7. In the case of QGHK, the enrichment ratio is reported as ≤ 0.25. With WPVV the enrichment ratio was ≤ 0.25. In the case of RHFA, the enrichment ratio is reported as ≤ 0.25. In the case of QHSR, the enrichment ratio is reported as ≤ 0.25. With GHCV the enrichment ratio was ≤ 0.25. In the case of IEPF, the enrichment ratio is reported as ≤ 0.25. KGLT was tested, and the enrichment ratio was ≤ 0.25. WWTC was tested, and the enrichment ratio was ≤ 0.25. For VGCY, the enrichment ratio was 2.46. In the case of NNAP, the enrichment ratio is reported as ≤ 0.25. For RKIP, the enrichment ratio was ≤ 0.25. For WENT, the enrichment ratio was ≤ 0.25. With YTRE the enrichment ratio was ≤ 0.25. For SYGY, the enrichment ratio was ≤ 0.25. WCMQ was tested, and the enrichment ratio was ≤ 0.25. For INLE, the enrichment ratio was ≤ 0.25.

— a collection of fitness landscapes (doi:10.1126/science.1257360)
